In PMC9911399, “Two distinct binding modes provide the RNA-binding protein RbFox with extraordinary sequence specificity”:
Positions count from the first letter of the chain named. This is one part of the list.

B1: CUAGAAA (DNA:RNA)
RNA: GGGAGACCGGAAUUCAGAUUGUCCCUAGAAAUUAAAUCCCGUCGUAGCCACCA
DNA 1: CAATCTGAATTCCGGTCTCCC
DNA 2: TGGTGGCTACGACGGGATT
B2: GUUCUCG (DNA:RNA)
RNA: B1 RNA with C25G, A27U, G28C, A29U, A30C, A31G
DNA 1: CAATCTGAATTCCGGTCTCCC
DNA 2: TGGTGGCTACGACGGGATT
B3: UGCUAUU (DNA:RNA)
RNA: B1 RNA with C25U, U26G, A27C, G28U, A30U, A31U
DNA 1: CAATCTGAATTCCGGTCTCCC
DNA 2: TGGTGGCTACGACGGGATT
B4: GGCGUGU (DNA:RNA)
RNA: B1 RNA with C25G, U26G, A27C, A29U, A30G, A31U
DNA 1: CAATCTGAATTCCGGTCTCCC
DNA 2: TGGTGGCTACGACGGGATT
B5: GUCUACU (DNA:RNA)
RNA: B1 RNA with C25G, A27C, G28U, A30C, A31U
DNA 1: CAATCTGAATTCCGGTCTCCC
DNA 2: TGGTGGCTACGACGGGATT
B6: AUUAUGG (DNA:RNA)
RNA: B1 RNA with C25A, A27U, G28A, A29U, A30G, A31G
DNA 1: CAATCTGAATTCCGGTCTCCC
DNA 2: TGGTGGCTACGACGGGATT
B7: GUGCAGG (DNA:RNA)
RNA: B1 RNA with C25G, A27G, G28C, A30G, A31G
DNA 1: CAATCTGAATTCCGGTCTCCC
DNA 2: TGGTGGCTACGACGGGATT
B8: GCCCUCG (DNA:RNA)
RNA: GGGAGACCGGAAUUCAGAUUGUCCGCCCUCGUUAAAUCCCGUCGUAGCCACCA
DNA 1: CAATCTGAATTCCGGTCTCCC
DNA 2: TGGTGGCTACGACGGGATT
B9: UAAUUUA (DNA:RNA)
RNA: B1 RNA with C25U, U26A, G28U, A29U, A30U
DNA 1: CAATCTGAATTCCGGTCTCCC
DNA 2: TGGTGGCTACGACGGGATT
B10: AACAGUG (DNA:RNA)
RNA: B8 RNA with G25A, C26A, C28A, U29G, C30U
DNA 1: CAATCTGAATTCCGGTCTCCC
DNA 2: TGGTGGCTACGACGGGATT
B11: UUGUCAA (DNA:RNA)
RNA: B1 RNA with C25U, A27G, G28U, A29C
DNA 1: CAATCTGAATTCCGGTCTCCC
DNA 2: TGGTGGCTACGACGGGATT
B12: AUGUAAU (DNA:RNA)
RNA: B1 RNA with C25A, A27G, G28U, A31U
DNA 1: CAATCTGAATTCCGGTCTCCC
DNA 2: TGGTGGCTACGACGGGATT
B13: GUCUAAA (DNA:RNA)
RNA: B1 RNA with C25G, A27C, G28U
DNA 1: CAATCTGAATTCCGGTCTCCC
DNA 2: TGGTGGCTACGACGGGATT
B14: AUGGCGC (DNA:RNA)
RNA: B1 RNA with C25A, A27G, A29C, A30G, A31C
DNA 1: CAATCTGAATTCCGGTCTCCC
DNA 2: TGGTGGCTACGACGGGATT
B15: GGCCACU (DNA:RNA)
RNA: B8 RNA with C26G, U29A, G31U
DNA 1: CAATCTGAATTCCGGTCTCCC
DNA 2: TGGTGGCTACGACGGGATT
B16: CCGAGCU (DNA:RNA)
RNA: B8 RNA with G25C, C27G, C28A, U29G, G31U
DNA 1: CAATCTGAATTCCGGTCTCCC
DNA 2: TGGTGGCTACGACGGGATT
B17: CUUUCGC (DNA:RNA)
RNA: B1 RNA with A27U, G28U, A29C, A30G, A31C
DNA 1: CAATCTGAATTCCGGTCTCCC
DNA 2: TGGTGGCTACGACGGGATT
B18: CGUUGCG (DNA:RNA)
RNA: B8 RNA with G25C, C26G, C27U, C28U, U29G
DNA 1: CAATCTGAATTCCGGTCTCCC
DNA 2: TGGTGGCTACGACGGGATT
B19: GUCCGUU (DNA:RNA)
RNA: B8 RNA with C26U, U29G, C30U, G31U
DNA 1: CAATCTGAATTCCGGTCTCCC
DNA 2: TGGTGGCTACGACGGGATT
B20: GUGUCGC (DNA:RNA)
RNA: B1 RNA with C25G, A27G, G28U, A29C, A30G, A31C
DNA 1: CAATCTGAATTCCGGTCTCCC
DNA 2: TGGTGGCTACGACGGGATT

The binders below were run against T1, RBFOX1 RRM (Homo sapiens, UniProt Q9NWB1 109-208) (assay: EMSA; HiTS-Eq, 1 nM pool, 10 min; buffer printed only for the single-RNA assays: 10 mM Tris pH 7.5, 150 mM NaCl, 3.4 mM EDTA, 0.001% NP-40, 30 C). Conditions: tags: His6 N-terminal (pET28a); label: 5' 32P.
T1 sequence: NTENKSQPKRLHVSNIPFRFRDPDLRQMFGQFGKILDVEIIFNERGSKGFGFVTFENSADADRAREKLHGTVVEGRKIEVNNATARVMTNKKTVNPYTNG
How it was run: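 These values rest on relative association constants, computed from read-count changes of each RNA species versus the control reaction and normalised to the cognate motif. Reads came from free RNA recovered by 8% native PAGE after purified RbFox RRM (wild type or mutant) at increasing concentrations was equilibrated for 10 min in 50 µL with 1 nM of a 5′-radiolabelled pool with 7 randomized nucleotides and DNA-annealed flanks.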
With B1 the binding signal was 0.00471 KA relative to UGCAUGU. With B2 the binding signal was 0.0248 KA relative to UGCAUGU. With B3 the binding signal was 0.0127 KA relative to UGCAUGU. For B4, the binding signal was 0.0166 KA relative to UGCAUGU. B5 was tested, and the binding signal was 0.00683 KA relative to UGCAUGU. B6 was tested, and the binding signal was 0.00808 KA relative to UGCAUGU. With B7 the binding signal was 0.0187 KA relative to UGCAUGU. For B8, the binding signal was 0.0107 KA relative to UGCAUGU. For B9, the binding signal was 0.00382 KA relative to UGCAUGU. With B10 the binding signal was 0.00691 KA relative to UGCAUGU. In the case of B11, the binding signal is reported as 0.0169 KA relative to UGCAUGU. With B12 the binding signal was 0.0035 KA relative to UGCAUGU. B13 was tested, and the binding signal was 0.00371 KA relative to UGCAUGU. With B14 the binding signal was 0.0174 KA relative to UGCAUGU. For B15, the binding signal was 0.00851 KA relative to UGCAUGU. For B16, the binding signal was 0.00909 KA relative to UGCAUGU. For B17, the binding signal was 0.0133 KA relative to UGCAUGU. B18 was tested, and the binding signal was 0.0173 KA relative to UGCAUGU. B19 was tested, and the binding signal was 0.0114 KA relative to UGCAUGU. B20 was tested, and the binding signal was 0.0166 KA relative to UGCAUGU.
